This is one part of the list.
Tested on: PfAP2-HC AP2 domain (GST-tagged)
Experiment: gcPBM binding intensity (ln(normalized median fluorescence intensity)); higher = stronger DNA binding
How it was run: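 The highest Masliner-normalised natural-log median intensity across replicate spots of either probe orientation is reported as binding intensity. GST-tagged P. falciparum DNA-binding domains expressed in E. coli were applied for 1 h to an Agilent 4 × 180k array of primer-extended double-stranded 36-bp intergenic genomic probes plus negative controls, and bound protein was detected with Alexa488 anti-GST antibody and scanned at 488 nm.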

Row | Sequence | gcPBM binding intensity (ln)
1 | TTATTTTTTTCAACAAGTACTAATACAAAATAAAAC [XGTACX_site6460] | 9.38
2 | GATTAAATCGATAATACACACTAAATGTAAAACATT [CACACA_site4248] | 9.81
3 | TTGTATTATTAAATTATAAAACCTATAATTATGGAT [GTGCAC_negctrl_site340] | 9.45
4 | CATATTTATAAATATAAACACACAACATTATATGCA [CACACA_site9065] | 9.95
5 | TTTAATTAATAATAATATAAATTGTTCTTTTTTTTT [GTGCAC_negctrl_site176] | 9.24
6 | GCAAAATAAAGAAGCACACAAAAATGAAATATATAT [CACACA_site3651] | 9.96
7 | TATACGTAATAATATGCACACAAATAAACTTTATAA [CACACA_site9166] | 9.89
8 | TCTTGGTATATTCAATATATGATTTATATAATTCAA [CACACA_negctrl_site818] | 9.54
9 | AAAAAAAATACATACATACACACATATATATATATA [CACACA_site912] | 9.9
10 | ACTAGTAAATTTATATGTACATATATATATATATAG [XGTACX_site2502] | 9.71
11 | ATTTATATATATCATACACACTAATATGTATATTAT [CACACA_site5816] | 9.86
12 | AATAATTTGAAGGTGATAGTATTACATGGGAAATCA [CACACA_negctrl_site301] | 9.68
13 | ACTCTCTTATATTAAACACACATATATATATGTATA [CACACA_site2703] | 9.89
14 | TCAAACAAAAAAGAAACACACACTAATTAAATTTTC [CACACA_site1101] | 9.96
15 | ATCTTTCGAACATGTACACACAGAAAAAAAAAAAAA [CACACA_site5393] | 9.65
16 | TTATATGCATCCAAAAAGGAATGTTTTTAGAGAATC [CACACA_negctrl_site1062] | 9.48
17 | GTGTAGGCAAAAAGTTGTACGCCTAAAATCTATATA [XGTACX_site8912] | 9.6
18 | TGTATAGGTACAATAATTATAGAGTAATTGACATTA [GTGCAC_negctrl_site183] | 9.48
19 | TAAAAAGTATATGGTCGTACACTTTTGATTAATACA [XGTACX_site7804] | 9.51
20 | AAATCGAACAAATTATGTACTAAAAAAAAAATTTAT [XGTACX_site6399] | 9.48
21 | GTACATATAAATATTACACACATTTTCATTTTTAAC [CACACA_site1986] | 9.95
22 | CATATAAGAATCTTCTGTACTTATAAGAAAAGACAT [XGTACX_site8135] | 9.38

Row | Sequence | gcPBM binding intensity (ln)
23 | TAAAACAAAATAACATGTACAAAAAAAAAAAAAAAA [XGTACX_site2915] | 9.24
24 | AAAAAAAAAAAAACAACACACAATGTTTTATTTTAC [CACACA_site1613] | 9.81
25 | ATGTAATATGTTCATGCATGTAAAATTACATTTAGA [TGCATGCA_site852] | 9.65
26 | ATACACAAATGCATACGTACATATATATATATATAT [XGTACX_site3504] | 10.1
27 | TATAAATAAAGACTTTTTTCTAACTTTTTTTTGTAT [CACACA_negctrl_site1015] | 9.55
28 | TATATATATATATATGTGCACATTTATTGCCTTTGC | 9.7
29 | AAAATTTAATATGAATGTACATAAAAAAAAAAAAAA [XGTACX_site6719] | 9.48
30 | TAAGTATATTTCTGCACACAAAAAAAAAAACCAAAA [CACACA_site4056] | 9.93
31 | ATATCTATAATAAACACACAAATAGATATAACATAT [CACACA_site7702] | 9.86
32 | AAAAAAAAATTAAAAACACACATATATATATATATA [CACACA_site1580] | 9.73
33 | ATATTTTTTTTCTTCACACACATGAGTTATAAATAA [CACACA_site7498] | 9.87
34 | AATGAAACAATACCCAGTAAAAAAAAAAAATAAATA [TGCATGCA_negctrl_site205] | 9.74
35 | TGTAATCTGGAGAAGAGTACACAGTATCTGGTAGCT [XGTACX_site4935] | 9.52
36 | ATATATAATATAATATGTACATATAATCAATCCTGT [XGTACX_site8694] | 9.76
37 | ATTTAGTATTCGAAACGTACACATATATATATATAT [XGTACX_site3910] | 9.82
38 | AAGGTAAAATATAAGTGTACTTTTTCTTAATCTTCG [XGTACX_site514] | 9.58
39 | GGACGTATTAAAAGGCGTACACTAAATATTTTATGT [XGTACX_site146] | 9.67
40 | TAATATTTATATAATTGTACTTTGTTTGTAAATCCA [XGTACX_site7292] | 9.55
41 | ATTATAATTTTGTAAAGTACATATTATTATATATTA [XGTACX_site7191] | 9.51
42 | TATTTATATAATCCTATAATATTACTACTATCTTTA [GTGCAC_negctrl_site342] | 9.72
43 | AAGATAATTACGCACACACACACACGCCCACAACTA [CACACA_site7255] | 11.4
44 | CCATATATAATGACATGTACTCAAAAAAAAAAAAAA [XGTACX_site685] | 9.42

Row | Sequence | gcPBM binding intensity (ln)
45 | TTTTTAAAAAAAAATAGAGAGTCAAAGTATGTGGCG [CACACA_negctrl_site194] | 9.52
46 | ATACATATATATATATGTACATATATTTATATTTAT [XGTACX_site3155] | 9.72
47 | TTTCTCTTTTTTTGGGGTACAACCAATCCTATAATA [XGTACX_site297] | 9.54
48 | TAATTCAAACGTGTATGTATATTACTCGAAGAAATA [CACACA_negctrl_site1779] | 9.41
49 | TTTCAAGGATTTAATTTATGGAAACCTTCTTCATTT [GTGCAC_negctrl_site504] | 9.38
50 | CATATAAGACAAAAGGTGCAATTTTAATGCTTTTAT [GTGCAC_site9432] | 9.65
51 | AACCCTTTTGATTTTTCTTTTTTTTTTTTTTTAAAT [CACACA_negctrl_site1667] | 9.53
52 | ACAGTTTGTCTGAGTAGTACATAAATACTTGAAAGG [XGTACX_site7792] | 9.63
53 | AGAAGGATATTATGAAGTACACATATTGTATATGGT [XGTACX_site7503] | 9.7
54 | TAGTAAAATGGAACACGTACATATATCTATGTATAA [XGTACX_site6103] | 9.83
55 | TATATATTTGTGAAAATATTAAAATAAATAAATAAA [CACACA_negctrl_site295] | 9.48
56 | AAAATCTAGGTATTTATACACACTAATATAATATAC [CACACA_site8108] | 9.63
57 | AAGTTCAAAATAAATGGTACAGAAGTATATATATCA [XGTACX_site174] | 9.75
58 | TAAAAAAAGAGATATTGTACACAAAAAAATTTTACT [XGTACX_site1342] | 9.59
59 | TAGAAAAAAAAATACATACACACAATATATTTATTT [CACACA_site3123] | 10.2
60 | CTCAAATAACTTTTTACACACATTATTTGAAATAAG [CACACA_site6722] | 9.7
61 | ATATGAATGATCGTACGTACTTACATATTTATAAAG [XGTACX_site8041] | 9.55
62 | CAGAATACATACATTACACACAAATTTAAGTATATA [CACACA_site1781] | 9.86
63 | TCTTACACTAATAAATGTACATACAAAAAATCTATT [XGTACX_site1379] | 9.53
64 | TACCCACTAAAATACACACACACACCCACATATATA [CACACA_site6141] | 10.4
65 | AATTTGAATATTTGATGTACAAAGTTTTTTAATGTT [XGTACX_site3249] | 9.49
66 | GAGAGGATAGTTCACAGTACCCAGTAACTCTACGGA [XGTACX_site4876] | 9.49

Row | Sequence | gcPBM binding intensity (ln)
67 | GTACCAACAGCACTACTTCTCGCCATTTTCTTGTAG [XGTACX_negctrl_site97] | 9.89
68 | ATAAATATAACATATTGTACCCTTAAAAAGGAACAA [XGTACX_site352] | 9.5
69 | AAATGTATAATTTTTTAATACACTTATTTAAAATAA [CACACA_negctrl_site797] | 9.4
70 | AGGAAAATAATTAAAGCATGCTCATTATGAAATATA [TGCATGCA_site855] | 9.62
71 | AATACATGAACTTAAAGTACTAAAAAAAAAATAATA [XGTACX_site1956] | 9.65
72 | TATGAGAACAAACATTGTACAATAAAAAGTAGATAT [XGTACX_site920] | 9.99
73 | TATACACGCGGACACACACACACACGCAAAAAAAAA [CACACA_site6377] | 10.5
74 | TAAAAACCAAAGAAAAGTACAAATTTAAATGAGAAA [XGTACX_site7450] | 9.83
75 | TTTACACCGTAATATGCATGTGTGTATATATTTTTG [TGCATGCA_site186] | 9.91
76 | ATAAGCCATTTTTGTGGTACATAAAATAGATATATA [XGTACX_site5175] | 9.63
77 | ATATATATTTAAAGATGTACATAATGAAATGGTTAT [XGTACX_site4706] | 10
78 | GCAGTATTTCGGAACACACAAACATAAATATGTATT [CACACA_site2316] | 9.89
79 | ATATATATATATGTATGTACATATTTTTTTTAACAC [XGTACX_site8475] | 9.8
80 | GCACAATTTACACTTAAACACACAAAAAAAAATTAT [CACACA_site8642] | 9.81
81 | AGCACAGACGGACACACACACACACCCACAGACACA [CACACA_site4358] | 11.4
82 | AAATTTATTTATTATAGTACACTTAATACTACCCAA [XGTACX_site41] | 9.44
83 | CATCTTAGTTTGAGTTGTACAATATTTATAAAAATA [XGTACX_site693] | 9.45
84 | ACAAGTTTAACATTTCGTACTTATTGTGTTTTTTTT [XGTACX_site5487] | 10.1
85 | CTTTTAATATTAAGATGTACTTAGAATTTTTTTTTT [XGTACX_site8338] | 9.37
86 | CATATATATTTATGTACACACATTAATAAAAAAAAA [CACACA_site5741] | 9.85
87 | TTTTTTGTTATTGGCGTGCACATATCCATTTATAGT | 9.8
88 | ATATATATAAATAATTGTACTTAAAAAAAAAAAAGG [XGTACX_site6847] | 9.69
